Data reported in the supplement of paper PMC8728848.
The list shows a part of the results.

Columns and labels:
Assay in all cases: glycan array binding signal (z-score within array); higher = stronger binding
Settings in all cases: glycan notation: IUPAC condensed, linker removed
[1] = biological target: Gal(b1-3)[Neu5Ac(a2-6)]GalNAc
Outline: (§1)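 Glycan array data were curated from 3228 arrays in the Consortium for Functional Glycomics database and kept only where the protein sequence was available. Glycan names were converted to IUPAC-condensed notation, and columns mapping to the same glycan were averaged. The binding signal is a within-array Z-score, averaged across arrays of the same protein sequence at different concentrations or buffers and across linkers. Negative Z-scores can be read as non-binding.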

[2] = biological target: Gal(b1-3)[Neu5Ac(a2-6)]GlcNAc
Outline: as §1

[3] = biological target: Gal(b1-3)[Neu5Ac(a2-6)]GlcNAc(a1-4)Gal(b1-4)Glc
Outline: as §1

[4] = biological target: Gal(b1-3)[Neu5Ac(a2-6)]GlcNAc(b1-6)Gal(b1-4)Glc
Outline: as §1

[5] = biological target: Gal(b1-3)[Neu5Ac(b2-6)]GalNAc
Outline: as §1

[6] = biological target: Gal(b1-3)[Neu5Ac(b2-6)]GlcNAc
Outline: as §1

[7] = biological target: Gal(b1-4)GalNAc(a1-3)[Fuc(a1-2)]Gal(b1-4)GlcNAc
Outline: as §1

[8] = biological target: Gal(b1-4)GalNAc(b1-3)[Fuc(a1-2)]Gal(b1-4)GlcNAc
Outline: as §1

Gal(b1-4)Glc = biological target: Gal(b1-4)Glc
Outline: as §1

Gal(b1-4)Glc6S = biological target: Gal(b1-4)Glc6S
Outline: as §1

Gal(b1-4)GlcNAc = biological target: Gal(b1-4)GlcNAc
Outline: as §1

[9] = biological target: Gal(b1-4)GlcNAc(b1-2)Man(a1-3)[Gal(b1-4)GlcNAc(b1-2)Man(a1-6)]Man(b1-4)GlcNAc(b1-4)GlcNAc
Outline: as §1

[10] = biological target: Gal(b1-4)GlcNAc(b1-3)Gal(b1-4)Glc
Outline: as §1

[11] = biological target: Gal(b1-4)GlcNAc(b1-3)Gal(b1-4)GlcNAc
Outline: as §1

[12] = biological target: Gal(b1-4)GlcNAc(b1-3)Gal(b1-4)GlcNAc(b1-3)Gal(b1-4)GlcNAc
Outline: as §1

[13] = biological target: Gal(b1-4)GlcNAc(b1-3)Gal(b1-4)[Fuc(a1-3)]GlcNAc(b1-3)Gal(b1-4)[Fuc(a1-3)]GlcNAc
Outline: as §1

[14] = biological target: Gal(b1-4)GlcNAc(b1-3)GalNAc
Outline: as §1

[15] = biological target: Gal(b1-4)GlcNAc(b1-3)[Gal(b1-4)GlcNAc(b1-6)]GalNAc
Outline: as §1

[16] = biological target: Gal(b1-4)GlcNAc(b1-6)Gal(b1-4)GlcNAc(b1-6)GalNAc
Outline: as §1

[17] = biological target: Gal(b1-4)GlcNAc(b1-6)GalNAc
Outline: as §1

[18] = biological target: Gal(b1-4)GlcNAc(b1-6)[Gal(b1-3)]GalNAc
Outline: as §1

[19] = biological target: Gal(b1-4)GlcNAc(b1-6)[Gal(b1-3)]GlcNAc
Outline: as §1

Gal3S(b1-3)GalNAc = biological target: Gal3S(b1-3)GalNAc
Outline: as §1

Gal3S(b1-3)GlcNAc = biological target: Gal3S(b1-3)GlcNAc
Outline: as §1

[20] = biological target: Gal3S(b1-3)[Fuc(a1-4)]GlcNAc
Outline: as §1

Gal3S(b1-4)Glc = biological target: Gal3S(b1-4)Glc
Outline: as §1

Gal3S(b1-4)Glc6S = biological target: Gal3S(b1-4)Glc6S
Outline: as §1

Gal3S(b1-4)GlcNAc = biological target: Gal3S(b1-4)GlcNAc
Outline: as §1

Gal3S(b1-4)GlcNAc6S = biological target: Gal3S(b1-4)GlcNAc6S
Outline: as §1

Gal3S6S(b1-4)GlcNAc = biological target: Gal3S6S(b1-4)GlcNAc
Outline: as §1

Gal3S6S(b1-4)GlcNAc6S = biological target: Gal3S6S(b1-4)GlcNAc6S
Outline: as §1

Gal4S(b1-4)GlcNAc = biological target: Gal4S(b1-4)GlcNAc
Outline: as §1

Gal4S6S(b1-4)GlcNAc = biological target: Gal4S6S(b1-4)GlcNAc
Outline: as §1

Gal6S(b1-4)Glc = biological target: Gal6S(b1-4)Glc
Outline: as §1

Gal6S(b1-4)Glc6S = biological target: Gal6S(b1-4)Glc6S
Outline: as §1

Gal6S(b1-4)GlcNAc = biological target: Gal6S(b1-4)GlcNAc
Outline: as §1

GalNAc(a1-3)Gal = biological target: GalNAc(a1-3)Gal
Outline: as §1

B1: T7P4 (Tuber borchii) (protein)
chain: GSHIGPYMSFYASSEDVRTIEEGGRTWLVGRARRADGSWQDIKLDLDNIIGNRDGHLTWGEQNFTQSASDIRFNFEGSNVPVLRAKLRNAAGGEQESDLNLGERLTNNNGDLVFN
[1]
  glycan array binding signal (z-score): -0.213
[2]
  glycan array binding signal (z-score): -0.216
[3]
  glycan array binding signal (z-score): 5.89
[4]
  glycan array binding signal (z-score): 5.74
[5]
  glycan array binding signal (z-score): -0.16
[6]
  glycan array binding signal (z-score): -0.104
[7]
  glycan array binding signal (z-score): 0.016
[8]
  glycan array binding signal (z-score): -0.211
Gal(b1-4)Glc
  glycan array binding signal (z-score): -0.128
Gal(b1-4)Glc6S
  glycan array binding signal (z-score): -0.215
Gal(b1-4)GlcNAc
  glycan array binding signal (z-score): -0.225
[9]
  glycan array binding signal (z-score): -0.223
[10]
  glycan array binding signal (z-score): 2.77
[11]
  glycan array binding signal (z-score): -0.196
[12]
  glycan array binding signal (z-score): -0.224
[13]
  glycan array binding signal (z-score): -0.216
[14]
  glycan array binding signal (z-score): -0.222
[15]
  glycan array binding signal (z-score): -0.226
[16]
  glycan array binding signal (z-score): -0.224
[17]
  glycan array binding signal (z-score): -0.221
[18]
  glycan array binding signal (z-score): -0.216
[19]
  glycan array binding signal (z-score): -0.203
Gal3S(b1-3)GalNAc
  glycan array binding signal (z-score): -0.217
Gal3S(b1-3)GlcNAc
  glycan array binding signal (z-score): -0.102
[20]
  glycan array binding signal (z-score): -0.221
Gal3S(b1-4)Glc
  glycan array binding signal (z-score): -0.008
Gal3S(b1-4)Glc6S
  glycan array binding signal (z-score): -0.219
Gal3S(b1-4)GlcNAc
  glycan array binding signal (z-score): -0.207
Gal3S(b1-4)GlcNAc6S
  glycan array binding signal (z-score): -0.215
Gal3S6S(b1-4)GlcNAc
  glycan array binding signal (z-score): -0.211
Gal3S6S(b1-4)GlcNAc6S
  glycan array binding signal (z-score): -0.218
Gal4S(b1-4)GlcNAc
  glycan array binding signal (z-score): -0.202
Gal4S6S(b1-4)GlcNAc
  glycan array binding signal (z-score): -0.102
Gal6S(b1-4)Glc
  glycan array binding signal (z-score): -0.193
Gal6S(b1-4)Glc6S
  glycan array binding signal (z-score): 0.094
Gal6S(b1-4)GlcNAc
  glycan array binding signal (z-score): -0.215
GalNAc(a1-3)Gal
  glycan array binding signal (z-score): -0.215
